Among all 310,000 compounds or so, about 18,000 (5.8%) were called active. Inconclusive means that the source gave no clear call. Such entries were picked first, then a sample of the others. Calls follow the shape of the dose curve; as a rule, active = well fitted inhibition curve with a large enough effect; inconclusive = small, poorly fitted or top-dose-only effect, or another doubt; inactive = no such curve, though single readings can be large or run the other way. Potencies of inconclusive entries are left out as doubtful fits.
assay: Primary qHTS for delayed death inhibitors of the malarial parasite plastid, 48 hour incubation; settings: P. falciparum luciferase growth in erythrocytes; series mostly up to 28.7 µM; activity change, negative = inhibition: at the top concentration
Summary of the method: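 Here the parasites carry a stable luciferase gene and grow inside erythrocytes in Albumax-based RPMI medium with compound for one erythrocytic cycle. Activity is scored as loss of luminescent signal.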
% is scaled to controls: 0 for no effect and ±100 for the full control effect; potency is read from the fitted curve at half-maximal effect; tags tell the direction and shape of the fitted curve.

SMILES	Potency	activity change, negative = inhibition
Cc1cc(OCCCn2ccnc2)cc(C)c1Cl	inconclusive [inhibitor, partial curve]	–
CN(C)C(=O)c1ccc(Nc2ncnc3sc4c(c23)CCCCC4)cc1	inconclusive [inhibitor, partial curve, poor fit]	–
N#C/C(=C/c1ccc2c(c1)OCO2)C(=O)NCCc1c[nH]c2ccccc12	inconclusive [inhibitor, single point]	–
NS(=O)(=O)c1ccc(CNC(=O)Cn2nc(C(F)F)cc2C(F)F)cc1	–	inactive: 8.11%
Cc1[nH]c2ccccc2c1C(=O)NS(=O)(=O)Nc1ccc(F)cc1	inconclusive [inhibitor, partial curve, poor fit]	–
Cn1c(=O)c2c(nc(Sc3nc4ccccc4n3CC(=O)N3CCCCC3)n2C)n(C)c1=O	inconclusive [inhibitor, full curve]	–
CC(C)CN1CCN(C(=O)CCc2nnc(Cc3c[nH]c4ccccc34)o2)[C@@H](C)C1=O	–	inactive: -18.7%
Nc1ccccc1Nc1cc(-c2ccccc2)[nH]n1	inconclusive [inhibitor, single point]	–
C#CCOCCOCCOCCNc1nc(N2CCN(C(=O)C([C@@H](C)CC)n3cc(C(N)CO)nn3)CC2)nc(N2CCN(C(=O)[C@H](CCC(=O)O)n3cc(C(N)Cc4ccc(O)cc4)nn3)CC2)n1 (some centres not stated)	–	inactive: 40.7%
C/C(=N\NC(=O)c1ccncc1)c1cc2ccccc2oc1=O	inconclusive [inhibitor, partial curve, poor fit]	–
COc1ccc(CN(C)C(=O)c2cc(S(=O)(=O)NCc3ccccc3)ccc2C)c(OC)c1	inconclusive [inhibitor, partial curve, poor fit]	–
Cn1c(=O)[nH]c(=O)c2c1nc(N1CCOCC1)n2CC(=O)c1ccccc1	–	inactive: 38%
CC(C)(C)NC(=O)NC(=O)CSc1ccc(S(=O)(=O)N2CCCCC2)cn1	inconclusive [inhibitor, single point]	–
Oc1ccc(/C=N/n2cc(-c3ccccc3)[nH]c2=S)cc1	inconclusive [inhibitor, partial curve, poor fit]	–
COc1ccc(/C=N/n2cnc3c([nH]c4ccccc43)c2=O)cc1COc1ccccn1	–	inactive: -8.23%
Cc1onc(-c2ccccc2Cl)c1C(=O)Nc1ccccc1O	–	inactive: -28.3%
CC1CN(C2CCN(C(=O)c3cccc(Cl)c3)CC2)CC(C)O1 (configuration not stated)	inconclusive [inhibitor, partial curve, poor fit]	–
O=C(COC(=O)/C=C/c1ccc(S(=O)(=O)N2CCc3ccccc32)cc1)NC1CCS(=O)(=O)C1 (configuration not stated)	inconclusive [inhibitor, single point]	–
CCOC(=O)C1=C(C)NC(C)=C(C(=O)OCC)C1C(=O)OCC(=O)N1CCCCC1C (configuration not stated)	inconclusive [inhibitor, single point]	–
O=C(COc1ccc(Cl)cc1Cl)NCCCNC(=O)c1cnccn1	inconclusive [inhibitor, partial curve, poor fit]	–
COc1cc(C(=O)NCC(=O)NCC(c2ccco2)N2CCCCC2)cc(OC)c1OC (configuration not stated)	inconclusive [inhibitor, partial curve, poor fit]	–
CCOc1cc(/C=C/C(=O)Nc2ccc(C(=O)NCCN(CC)CC)cc2)ccc1OCC(C)C	active: 2.62 µM	–
CC(C)[C@H](NS(=O)(=O)c1ccc2c(c1)OCCO2)C(=O)OCC(=O)Nc1cc(Cl)ccc1Cl	–	inactive: 0.322%

SMILES	Potency	activity change, negative = inhibition
CCN(CC)c1nc2c(c(=O)[nH]c(=O)n2C)n1CCOc1ccccc1	–	inactive: 0%
COc1ccc(-c2nnc(NC(=O)c3ccccc3C)o2)cc1	inconclusive [inhibitor, single point]	–
C#CCNc1nc(C(C)C)nc2c1nnn2Cc1ccccc1F	inconclusive [inhibitor, single point]	–
CC1=Nc2cc(C(=O)NCCCN3CCOCC3)ccc2Sc2c(C)ccc(C)c21	inconclusive [inhibitor, partial curve, poor fit]	–
CCC(C)C(=O)OC1CC(O)C=C2C=CC(C)C(CCC(O)CC(O)CC(=O)O)C21 (configuration not stated)	–	inactive: -12.3%
O=C(c1cc(F)ccc1F)C1CCCN(CCCc2ccccc2)C1 (configuration not stated)	inconclusive [inhibitor, single point]	–
CNC(=O)c1ccc(=O)n(Cc2cccc(C(F)(F)F)c2)c1	active: 2.94 µM	–
S=C(NCC1COc2ccccc2O1)Nc1ccccc1 (configuration not stated)	–	inactive: 0.694%
Cc1cc2cc(CNC(=S)NCc3ccccc3)ccc2n1C	–	inactive: -26.5%
CCOC(=O)C1(CCOc2ccccc2)CCN(Cc2ccc3nonc3c2)CC1	inconclusive [inhibitor, partial curve]	–
O=C(COc1ccc(Cl)cc1Cl)N(c1ccccn1)C1CCCCC1	inconclusive [inhibitor, partial curve, poor fit]	–
O=C(CCl)N1CCN(CC(=O)N2CCCC2)CC1	inconclusive [inhibitor, single point]	–
Cc1ccc2c(c1)/C(=N/O)CCS2	–	inactive: 7.7%
CCCCCOc1ccc(NS(C)(=O)=O)cc1	inconclusive [inhibitor, single point]	–
Cc1cc(C(=O)OCC(=O)N(C)C2CCS(=O)(=O)C2)c(C)n1-c1ccccc1 (configuration not stated)	inconclusive [inhibitor, partial curve, poor fit]	–
O=C1/C(=C\c2ccccc2)C2OCC=C3CN4CCC56c7ccccc7N1C5C2C3CC46 (configuration not stated)	active: 2.33 µM	–
N#Cc1ccc(-c2cn(-c3ccccc3)c3[n+]2CCCS3)cc1	inconclusive [inhibitor, partial curve]	–
COc1ccc(NC(=O)c2oc3ccc(S(=O)(=O)N4CCOCC4)cc3c2C)cc1	inconclusive [inhibitor, single point]	–
Cc1ccc(C(=O)Nc2ccc(S(=O)(=O)N3CCN(C)CC3)cc2)cc1	inconclusive [inhibitor, partial curve]	–
CC(C)[C@@]1(NC(=O)[C@@H]2C=C3c4cccc5[nH]cc(c45)C[C@H]3N(C)C2)O[C@@]2(O)[C@@H]3CCCN3C(=O)[C@H](Cc3ccccc3)N2C1=O	active: 2.94 µM	–
COc1cc(CNC(=O)c2cccc(COc3ccc(Cl)cc3)c2)cc(OC)c1	–	inactive: 202%
O=C1S/C(=C/c2ccc(N3CCOCC3)o2)C(=O)N1Cc1ccc(F)cc1	inconclusive [inhibitor, full curve, poor fit]	–
C/C(CCN1CCc2nc(-c3ccccc3)c(-c3ccccc3)cc2C1)=N\OC[C@@H](C)[C@H](OCc1ccccc1)C(C)C	inconclusive [inhibitor, partial curve, poor fit]	–

SMILES	Potency	activity change, negative = inhibition
COc1cc(CN2CCCC(C(=O)Nc3cccc(-n4cccn4)c3)C2)ccc1F (configuration not stated)	inconclusive [inhibitor, partial curve]	–
CC(=O)Nc1ccc(S(=O)(=O)NCCC(=O)OCc2ccccc2F)cc1	inconclusive [inhibitor, single point]	–
S=C(NC1CCCCC1)NN1CCOCC1	inconclusive [inhibitor]	–
N/C(CC1CC1(Cl)Cl)=N\OC(=O)c1ccccc1 (configuration not stated)	inconclusive [inhibitor, partial curve, poor fit]	–
CCOC(=O)C1=C(C)N2C(=C(C#N)[C@@H]1c1ccc(C(=O)OC)cc1)SC[C@@]2(O)C(C)(C)C	active: 13.1 µM	–
O=C(CSc1ncnc2c1cnn2CCc1ccccc1)Nc1cccc(C(F)(F)F)c1	inconclusive [inhibitor, single point]	–
Cc1ccc2c(c1)NCC(C(=O)NC1CCCCC1)O2 (configuration not stated)	–	inactive: 16.8%
O=[N+]([O-])c1cc(N=Nc2ccc3ccccc3c2)ccc1O	–	inactive: 150%
CCCCC(=O)NCCNc1nc2c(c(=O)n(C)c(=O)n2C)n1Cc1ccccc1	inconclusive [inhibitor, partial curve]	–
COc1ccccc1/C=C1/SC(=S)N(CCC(=O)Nc2cccnc2)C1=O	–	inactive: 16.4%
Cc1ccc(CN2CCN(CC(=O)N=Nc3c(O)[nH]c4ccccc34)CC2)cc1	inconclusive [inhibitor, single point]	–
CCOc1cccc(-c2c(C(=O)N/N=C/c3ccc(C)s3)nnn2-c2nonc2N)c1	inconclusive [inhibitor, single point]	–
CCN(CC)c1ccc(NC(=O)c2cc3ccccc3o2)c(C)c1	–	inactive: -3.35%
CCc1ccc(NC(=O)COC(=O)C2(c3ccc(Cl)cc3)CCCC2)cc1	–	inactive: -15.5%
CC1CCN(C(=O)Cn2c3ccccc3c3nc4n(c(=O)c32)CCS4)CC1	inconclusive [inhibitor, partial curve]	–
O=C(Nc1ccc(F)cc1)Nc1ccc(S(=O)(=O)N2CCCC2)cc1	active: 13.1 µM	–
CCOC(=O)c1sc(NC(=O)Cc2c(F)cccc2Cl)nc1C	inconclusive [inhibitor, single point]	–
COc1cc(CNC(C)(C)CO)cc(Br)c1OCc1ccc(Cl)cc1	active: 13.1 µM	–
c1ccc2c(c1)nc(N1CCCCCC1)c1ccccc12	inconclusive [inhibitor, single point]	–
Cc1nnc(SCC(=O)NNC(=O)c2ccco2)s1	inconclusive [inhibitor, single point]	–
CCCCOCCCNC(=O)N[C@H](C(=O)O)C(C)CC (some centres not stated)	inconclusive [inhibitor, single point]	–

— PubChem BioAssay AID504832 (National Center for Advancing Translational Sciences (NCATS), 2011)
